{
  "source": "PubChem BioAssay AID720707",
  "about": "(National Center for Advancing Translational Sciences (NCATS), 2013)",
  "note": "The campaign covered roughly 360,000 compounds. About 270 (0.075%) were called active. The inconclusive results got no clear call from the source; some entries with a clear call stand among them for comparison. Calls follow the shape of the dose curve; as a rule, active = well fitted activation curve with a large enough effect; inconclusive = small, poorly fitted or top-dose-only effect; inactive = no such curve, though single readings can be large or run the other way. Potencies of inconclusive entries are left out as doubtful fits. Potency is read from the fitted curve at half-maximal effect; tags tell the direction and shape of the fitted curve.",
  "data": [
    {"biological_target": "Rap guanine nucleotide exchange factor 3 (Homo sapiens) (UniProt O95398)", "sequence (O95398 whole entry, looked up)": "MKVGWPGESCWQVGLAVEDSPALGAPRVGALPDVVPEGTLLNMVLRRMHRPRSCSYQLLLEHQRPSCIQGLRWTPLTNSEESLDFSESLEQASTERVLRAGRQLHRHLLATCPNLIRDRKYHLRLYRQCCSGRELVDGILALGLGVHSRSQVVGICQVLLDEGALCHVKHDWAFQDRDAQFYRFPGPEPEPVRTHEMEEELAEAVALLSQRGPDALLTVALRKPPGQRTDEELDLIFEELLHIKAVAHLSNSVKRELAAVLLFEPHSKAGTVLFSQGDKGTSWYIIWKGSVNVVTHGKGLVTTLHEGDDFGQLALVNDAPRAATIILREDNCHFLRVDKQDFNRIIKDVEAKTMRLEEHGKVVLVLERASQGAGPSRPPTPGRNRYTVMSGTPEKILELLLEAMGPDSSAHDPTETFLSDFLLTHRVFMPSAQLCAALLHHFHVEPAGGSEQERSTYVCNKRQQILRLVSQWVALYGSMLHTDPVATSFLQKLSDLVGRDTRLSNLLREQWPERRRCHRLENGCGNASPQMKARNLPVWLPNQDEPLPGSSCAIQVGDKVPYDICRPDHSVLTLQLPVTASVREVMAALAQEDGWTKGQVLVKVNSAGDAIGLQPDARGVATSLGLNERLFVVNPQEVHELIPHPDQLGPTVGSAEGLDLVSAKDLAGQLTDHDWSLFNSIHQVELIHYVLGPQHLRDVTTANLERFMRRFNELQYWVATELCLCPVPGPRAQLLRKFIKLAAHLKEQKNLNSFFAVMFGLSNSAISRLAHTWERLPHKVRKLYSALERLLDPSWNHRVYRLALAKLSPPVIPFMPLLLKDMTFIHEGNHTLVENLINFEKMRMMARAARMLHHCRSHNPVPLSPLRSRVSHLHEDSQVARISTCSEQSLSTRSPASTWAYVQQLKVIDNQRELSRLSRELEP", "assay": "qHTS for Agonist of cAMP-regulated guanine nucleotide exchange factor 3 (EPAC1): primary screen; also: nearly all actives have a fitted effect of over 60% in size", "conditions": "biochemical assay; activation: at 154 µM (top of the series), 100% = response to 6.5 mM cAMP", "procedure,_shortened": "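Read-out is the fluorescence drop as BODIPY-GDP leaves Rap1B (480 nm excitation, 540 nm emission), recorded every 5 minutes over 30 minutes. Reactions held 100 nM EPAC1, 250 nM Rap1B–BODIPY-GDP and 50 uM GDP, with 6.5 mM cAMP setting full activation.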", "values": [
      {"smiles": "Cc1cc(NC(=O)c2cnn3c(C(F)(F)F)cc(-c4ccccc4)nc23)no1", "activation": "inactive: 6.22%"},
      {"smiles": "O=C1c2cccc3c(N4CCCCC4)ccc(c23)C(=O)N1c1ccccc1O", "Potency": "inconclusive [activator, partial curve]"},
      {"smiles": "O=C1c2cccc3c(N4CCCCC4)ccc(c23)C(=O)N1c1cccc(O)c1", "Potency": "inconclusive [activator, partial curve, poor fit]"},
      {"smiles": "O=C(O)CCCN1C(=O)/C(=C\\c2ccccc2OCc2ccccc2)SC1=S", "activation": "inactive: -0.984%"},
      {"smiles": "CC(C)(Oc1ccc(Cl)cc1)C(=O)N/N=C/c1cn[nH]c1-c1ccccc1", "Potency": "inconclusive [activator, partial curve]"},
      {"smiles": "CCc1ccc(NC(=O)CSc2nc(=O)n(CCN(C)C)c3c2CCCC3)cc1", "Potency": "inconclusive [activator, full curve, poor fit]"},
      {"smiles": "CC(C)CN(C(=O)CCCOc1ccc(Cl)cc1Cl)c1c(N)n(Cc2ccccc2)c(=O)[nH]c1=O", "Potency": "inconclusive [activator, partial curve, poor fit]"},
      {"smiles": "O=C(CNC(=O)c1ccccc1F)NCCCN1CCCC1=O", "Potency": "inconclusive [activator, partial curve, poor fit]"},
      {"smiles": "O=C(Cn1ccc(=O)[nH]c1=O)c1ccc([N+](=O)[O-])o1", "Potency": "active: 100 µM"},
      {"smiles": "COc1ccc(OC)c(/C=C2/Sc3ccccc3C2=O)c1", "activation": "inactive: 15.8%"},
      {"smiles": "Fc1ccc(N2CCN(C3=Nc4cccc5cccc3c45)CC2)cc1", "Potency": "inconclusive [activator, partial curve]"},
      {"smiles": "Cc1ccc(S(=O)(=O)N2CCOC23CCN(C(=O)C(=O)NCc2ccccc2)CC3)cc1", "Potency": "inconclusive [activator, partial curve]"},
      {"smiles": "COc1ccc(C)cc1NC(=O)NC(C)c1ccc2c(c1)OCO2", "note": "(configuration not stated)", "activation": "inactive: -6.32%"},
      {"smiles": "COC(CNC(=O)c1ccc2c3c(onc13)-c1ccccc1C2=O)OC", "Potency": "active: 56.2 µM"},
      {"smiles": "Cc1ccc(NC(=O)C(C)c2cccc(C(=O)c3ccccc3)c2)cc1", "note": "(configuration not stated)", "Potency": "inconclusive [activator, single point]"},
      {"smiles": "N=C1/C(=C\\c2coc3ccccc3c2=O)C(=O)N=C2SC(c3ccncc3)=NN12", "Potency": "active: 100 µM"},
      {"smiles": "COC(=O)c1sc(=S)n(-c2cc(F)ccc2F)c1N", "activation": "inactive: -5.82%"},
      {"smiles": "CCc1ccc(N=C2NC(=O)/C(=C/c3cc(Br)c(OCC(=O)O)c(OC)c3)S2)cc1", "Potency": "inconclusive [activator, partial curve]"},
      {"smiles": "CC(C)COc1ccc(CNC(=S)NCc2ccccc2)cc1", "Potency": "inconclusive [activator, partial curve]"},
      {"smiles": "Nc1ncnc2c1C(c1ccccc1)c1c(ccc3ccccc13)O2", "note": "(configuration not stated)", "activation": "inactive: -3.45%"},
      {"smiles": "C=CCN1C(=O)c2ccc(C(=O)N(C)CC(=O)Nc3ccccc3Cl)cc2C1=O", "Potency": "inconclusive [activator, partial curve]"},
      {"smiles": "CN(C)c1ccc(C2C=C(c3ccc(Cl)cc3OC(F)F)Nc3ncnn32)cc1", "note": "(configuration not stated)", "Potency": "inconclusive [activator, partial curve]"},
      {"smiles": "O=C(C1COc2ccccc2O1)N1CCN(c2nc3c(F)cc(F)cc3s2)CC1", "note": "(configuration not stated)", "Potency": "inconclusive [activator, full curve, poor fit]"},
      {"smiles": "CC(C)CCNC(=O)c1c(CSc2ccc(Cl)cc2)noc1C(=O)NCc1ccccc1", "activation": "inactive: -10.3%"},
      {"smiles": "Nc1c(N(CCC2=CCCCC2)C(=O)c2ccc([N+](=O)[O-])o2)c(=O)[nH]c(=O)n1Cc1ccccc1", "Potency": "inconclusive [activator, full curve, poor fit]"},
      {"smiles": "CC[C@]12C(=O)N(C)C[C@H]([C@@H]3C(=O)N(Cc4ccccc4)C(=O)[C@@H]31)N2C(=O)c1ccc(C(F)(F)F)cc1", "activation": "inactive: -12%"},
      {"smiles": "CC(C)COc1ccc(/C(=N/O)c2ccccc2)cc1", "Potency": "inconclusive [activator, full curve]"},
      {"smiles": "CCN(CC(=O)Nc1ccccc1C(F)(F)F)C(=O)CCOc1ccccc1C", "Potency": "active: 44.7 µM"},
      {"smiles": "C/C(=N\\OCC(=O)OCC(=O)NC(=O)c1ccc(OC(F)F)cc1)c1ccc2c(c1)OCO2", "Potency": "inconclusive [activator, single point]"},
      {"smiles": "CCCCN(C(=O)CSCC(=O)Nc1ccc(C)cc1)c1c(N)n(CCCC)c(=O)[nH]c1=O", "Potency": "inconclusive [activator, partial curve]"},
      {"smiles": "COc1ccc(C2=CC3=C(Br)C(=O)C(C)(OC(=O)c4cccs4)C(=O)C3=CO2)cc1", "note": "(configuration not stated)", "activation": "inactive: -12.7%"},
      {"smiles": "CSc1ccc(S(=O)(=O)NCC(=O)OCC(=O)N(C)Cc2ccccc2)cc1[N+](=O)[O-]", "Potency": "inconclusive [activator, single point]"},
      {"smiles": "Cc1cccc(C)c1OCC(=O)Nc1cccc(S(=O)(=O)N2CCCC2)c1", "Potency": "inconclusive [activator, single point]"},
      {"smiles": "Cc1ccc(C)c(S(=O)(=O)N2CCCCC2CCNC(=O)C(=O)NCc2ccco2)c1", "note": "(configuration not stated)", "Potency": "inconclusive [activator, single point]"},
      {"smiles": "Cc1ccccc1OCCC(=O)OCC(=O)N1CCN(S(=O)(=O)c2ccc(Cl)cc2)CC1", "Potency": "inconclusive [activator, partial curve, poor fit]"},
      {"smiles": "CC1(C)C=C2C(=NN(c3ccccc3)C(N)=C2C#N)CO1", "activation": "inactive: 1.77%"},
      {"smiles": "Cc1ccccc1C1CC(=O)Oc2cc(O)ccc21", "note": "(configuration not stated)", "Potency": "inconclusive [activator, partial curve]"},
      {"smiles": "CCOc1ccccc1OCC(=O)Nc1cc(S(=O)(=O)N2CCCCC2)ccc1N1CCN(CC)CC1", "Potency": "inconclusive [activator, partial curve]"},
      {"smiles": "N#CCC(=O)Nc1ccc(C(=O)OCC(=O)N2CCCC2=O)cc1", "Potency": "inconclusive [activator, single point]"},
      {"smiles": "O=C(O)CCN1C(=O)/C(=C\\c2cccc(OCC(=O)Nc3ccc(Cl)cc3)c2)SC1=S", "Potency": "inconclusive [activator, partial curve]"},
      {"smiles": "COc1ccc(N=Cc2sc(O)c3ccccc23)cc1", "Potency": "inconclusive [activator, full curve, poor fit]"},
      {"smiles": "CN(C)/C=C1\\C=C2C(=O)c3ccccc3N2C1=O", "Potency": "inconclusive [activator, partial curve, poor fit]"}
    ]}
  ]
}
